Source: the supplement of paper PMC11417369
± gives the standard deviation of the averaged measurements. The list shows a part of the results.

These sequences were tested on PfAP2-I AP2 domain 3 (GST-tagged) (assay: gcPBM binding intensity (ln(normalized median fluorescence intensity)); higher = stronger DNA binding).
Summary of the method: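 Binding of GST-tagged P. falciparum DNA-binding domains, expressed in E. coli and used at about 25 μg on average, was carried out for 1 h in 1× PBS containing 1% milk, 0.2 mg/ml BSA, 0.5% salmon testes DNA and 0.03% Triton X-100. The target was an Agilent 4 × 180k array of primer-extended double-stranded 36-bp intergenic genomic probes plus negative controls, read with Alexa488 anti-GST antibody at 488 nm. Binding intensity is the highest Masliner-normalised natural-log median intensity across replicate spots of either probe orientation.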

| Sequence | gcPBM binding intensity (ln) |
| --- | --- |
| TATTTCCTTTTTCTTGTTATTCATGAGAAAAAATGA [CACACA_negctrl_site482] | 7.67 ± 0.52 |
| AAAATAATAATAGGCACACATATATATATATATATA [CACACA_site2058] | 9.36 ± 0.32 |
| AAAAAAAAAAAAACTACACACATACAAATATTTATA [CACACA_site5430] | 7.77 ± 0.34 |
| TACATACATACAGGAGTGCATATATCACAATTATTA | 10.1 ± 0.16 |
| AGTATACTCGGACACACACACACATATATATATATA [CACACA_site5031] | 9.395 ± 0.078 |
| TTATATATATCTAATTGTACAATATTATGTTCATTA [XGTACX_site7479] | 7.67 ± 0.49 |
| ATATATAATATAATATGTACATAAAATTTTAACATT [XGTACX_site5773] | 7.83 ± 0.33 |
| ATTTATTAAATAAAAAGTACAAAATAAGAAAGAAGA [XGTACX_site6935] | 8.24 ± 0.54 |
| AAAAAAACAGTGAATGCACACATTTAAGATCCATAT [CACACA_site3148] | 9.51 ± 0.085 |
| TATATTCCCTTAATCACACATAAATAAAAAAAAATA [CACACA_site6094] | 7.66 ± 0.3 |
| CAAATATGTCTTATTCGTACACATATATATATATAT [XGTACX_site8817] | 9.55 ± 0.28 |
| TTTCTTTATAAATTAATATTCACAACACAAAATATA [CACACA_negctrl_site450] | 7.72 ± 0.4 |
| AAGAAAATAAAAAATAAGCATAATATGATATGATAT [TGCATGCA_negctrl_site196] | 7.64 ± 0.52 |
| GTGCATATAAGGAAGTGTACGAAAAAAAATATTCCA [XGTACX_site8490] | 9.88 ± 0.56 |
| AAAAATTTGGCATACACACACACACCGACACAGACA [CACACA_site4489] | 8.29 ± 0.22 |
| ATGTATGTTTATTACTATTTTGAGAATAGACTATAA [CACACA_negctrl_site1366] | 7.52 ± 0.4 |
| AGTTATATGATTAATACACACAACAAATGTTTCTTC [CACACA_site1092] | 7.78 ± 0.57 |
| AATTTGGTGTGTGTAAAAGTATGTGTCTATATTTAT [GTGCAC_negctrl_site166] | 8.36 ± 0.38 |
| ACGACTAAATATATGAGTACATATATATATAAATAT [XGTACX_site7522] | 7.51 ± 0.42 |
| AAGAATCATATTTAAACACACATACAGATATATATA [CACACA_site5787] | 7.79 ± 0.59 |
| TCTAAAATAAATAATGCATGTTAAAAAAAAATATAT [TGCATGCA_site562] | 8.09 ± 0.75 |
| TGCAAAAAATTCCACACACACACACCCATATAAATA [CACACA_site1230] | 8.02 ± 0.2 |

| Sequence | gcPBM binding intensity (ln) |
| --- | --- |
| AATTAAAATATATATATACACACGTAATTATATATA [CACACA_site3819] | 7.38 ± 0.43 |
| ATTGTGGCAATATATTGTACATGTAATATAAATATA [XGTACX_site5415] | 8.1 ± 0.31 |
| AAAAAAAAAAAAAAGAGTACTTTTTTCTCATTACTA [XGTACX_site8353] | 7.99 ± 0.54 |
| AAAAAAAAAAAAATAGGTACGTAAATATTTCTTTAA [XGTACX_site6423] | 7.68 ± 0.34 |
| TCTTTTAGTTTTATCCACATAATAAAAAGCAAAAAA [GTGCAC_negctrl_site368] | 7.92 ± 0.47 |
| TATTCTTCAATTTAAAGTACAAAAATTACTATACTT [XGTACX_site6599] | 7.58 ± 0.28 |
| AGAACCATATATAAATGTACATGTTAATATGAATAA [XGTACX_site130] | 8.16 ± 0.52 |
| GGACAAAAAAAAAAAATAAAATAAAAATAAATAAAT [XGTACX_negctrl_site106] | 7.33 ± 0.61 |
| AAATATATATGAAGATGTACATATATATATGTAAAT [XGTACX_site4039] | 7.65 ± 0.51 |
| TAACACTTATAAAAAAGTACTGATGAAATAATACTA [XGTACX_site7305] | 7.49 ± 0.33 |
| AAAAATTCCAGACACACACACACATATAAATAAATA [CACACA_site1232] | 7.77 ± 0.59 |
| TGTTAATAAAGGTGTACACAAAATAAAAAAAATTAT [CACACA_site4288] | 8.63 ± 0.45 |
| TTTGTATAGTTGTAGGTGCATATCATTTTTAAATGT [GTGCAC_site9708] | 10.3 ± 0.36 |
| TATAATTATATTTGGAGTACAAATTTTTTTTTTTTT [XGTACX_site7494] | 7.765 ± 0.007 |
| AAAAAAAAAGGTAACGCATGCTTTTAGATTATATTA [TGCATGCA_site398] | 7.3 ± 0.73 |
| AAGTATGCTTGCTACTTATTAAGTGGCAATATAATT [XGTACX_negctrl_site74] | 8.34 ± 0.35 |
| CTTTTTAATAAATATACACACACAAAAAAAAAAAAA [CACACA_site9316] | 8.09 ± 0.71 |
| CACTTTATACGTAATTGTACTTTTTCTTTTTTTTAT [XGTACX_site3175] | 8.02 ± 0.47 |
| ACTTACTAATTAATGGGTACATACACACATATATAC [XGTACX_site1362] | 8.09 ± 0.56 |
| TATTCAAAGAAAGACAGTACGTGTAGCAAACAACCT [XGTACX_site4218] | 7.9 ± 0.49 |
| TAAATAAAGTATAATGCATGCTATTATAATATTAAT [TGCATGCA_site825] | 7.75 ± 0.49 |
| AATAAAAAAATAGAAACACACATTAAAAAAAATAAA [CACACA_site1333] | 7.54 ± 0.47 |
